Data: patent US20230398232A1, “Composition and Use of Alternatively Formatted Anti-Mesothelin Antibodies for the Treatment of Cancer” (Navrogen, Inc., priority 2020, published 2023)
“Also recorded” adds a separate entry of the source.

Columns and labels:
[1] = test system: OVCAR3 ovarian cancer cell line; experiment: PBMC immune-mediated killing of OVCAR3 (Cell Titer GLO); type: cell-based; settings: OVCAR3 plus human PBMCs; 72 hours
[2] = test system: OVCAR3 CA125 knockdown line (OVCAR-KO); experiment: pHrodo antibody internalization assay, OVCAR-KO; type: cell-based, human; settings: over 24 hours
[3] = test system: OVCAR3 cells (mesothelin and membrane bound CA125); experiment: pHrodo antibody internalization assay, OVCAR3; type: cell-based, human; settings: OVCAR3, CA125 expressing; over 24 hours
human CA125 protein = experiment: ELISA screen for binding of anti-mesothelin antibodies by CA125; settings: 15 KU/mL soluble CA125 coated, 2.5 μg/mL antibody, 450 nm
OVCAR3 cells = experiment: Jurkat-CD16a ADCC reporter assay, OVCAR3; type: cell-based, human; settings: OVCAR3, CA125 expressing
[4] = test system: NCI-N87 gastric cancer xenograft; experiment: NCI-N87 gastric cancer CDX model; type: in vivo, SCID mice; settings: for in vivo efficacy, cleavable versus non-enzymatic cleavable format: comparison of formats
[5] = test system: SW1990 pancreatic cancer xenograft; experiment: SW1990 pancreatic cancer CDX model; type: in vivo, athymic nude mice; settings: day 39
[6] = test system: mesothelin negative A549 and CHO cells; experiment: MES-ADC killing of mesothelin-negative control lines; type: cell-based; settings: A549 or CHO; 72 hours
[7] = test system: mesothelin-positive NCI-N87, SW1990, HAY, YOU, OVCAR3, CHO-MES cells; experiment: MES-ADC killing of mesothelin-positive cell lines, crystal violet; type: cell-based; settings: mesothelin expressing lines irrespective of CA125 status; cleavable linkers; 72 hours
[8] = test system: OVCAR3-CA125 knockdown (OVCAR-KO) cell line; experiment: Jurkat-CD16a ADCC reporter assay, OVCAR-KO; type: cell-based, human
[9] = test system: mesothelin positive, CA125 expressing human mesothelioma cell line; experiment: Humanized PBMC nude mouse mesothelioma model; type: in vivo, athymic nude mice
NCI-N87 and SW1990 cells = experiment: PNU-MES-ADC linker format potency comparison; type: cell-based, human
[10] = test system: LXFA983 NSCLC PDX (CA125 low); experiment: LXFA983 NSCLC PDX model; type: in vivo, athymic nude mice; settings: 0.625 mg/kg day 1, 4, 8 and 0.4 mg/kg day 12, 16, i.v., p≤0.0003
[11] = test system: CA125 positive, mesothelin-expressing PXF1118 tumors; experiment: PXF1118 PDX, single and multiple dosing; type: in vivo, athymic nude mice
[12] = test system: PXF1118 mesothelioma PDX (CA125 high); experiment: PXF1118 PDX model; type: in vivo, athymic nude mice; settings: 0.625 mg/kg day 1, 4, 8 and 0.4 mg/kg day 12, 16, 20, i.v., p≤0.012
[13] = listed as PNU-MES-ADC cleavable format

B1: MES-1: anti-mesothelin antibody of SEQ ID NO: 1 (light chain) and SEQ ID NO: 2 (heavy chain), CA125 refractory (antibody, listed as Oryctolagus cuniculus)
heavy: EVQLVESGGGLVQPGGSLRLSCAASGFDLGFYFYACWVRQAPGKGLEWVSCIYTAGSGSTYYASWAKGRFTISRDNSKNTLYLQMNSLRAEDTAVYYCARSTANTRSTYYLNLWGQGTLVTVSS[left out - human IgG1 constant region]
light: DIQMTQSPSSLSASVGDRVTITCQASQRISSYLSWYQQKPGKVPKLLIYGASTLASGVPSRFSGSGSGTDFTLTISSLQPEDVATYYCQSYAYFDSNNWHAFGGGTKVEIKRTVAAPSVFIFPPSDEQLKSGTASVVCLLNNFYPREAKVQWKVDNALQSGNSQESVTEQDSKDSTYSLSSTLTLSKADYEKHKVYACEVTHQGLSSPVTKSFNRGEC
[1]
  PBMC immune-mediated target cell killing: showed tumor cell killing
[2]
  antibody uptake (intracellular fluorescence): efficient uptake
[3]
  antibody uptake (intracellular fluorescence): efficient uptake
Human CA125 protein
  binding of antibody by CA125 (ELISA): not bound by CA125
Human CA125 protein; listed as meso-Ab3
  binding of antibody by CA125 (ELISA): did not
OVCAR3 cells
  ADCC activity (luciferase readout): significantly higher ADCC activity against OVCAR3 than meso-Ab-4

B2: SN38-MES-ADC (conjugate)
light: DIQMTQSPSSLSASVGDRVTITCQASQRISSYLSWYQQKPGKVPKLLIYGASTLASGVPSRFSGSGSGTDFTLTISSLQPEDVATYYCQSYAYFDSNNWHAFGGGTKVEIKRTVAAPSVFIFPPSDEQLKSGTASVVCLLNNFYPREAKVQWKVDNALQSGNSQESVTEQDSKDSTYSLSSTLTLSKADYEKHKVYACEVTHQGLSSPVTKSFNRGEC
heavy: EVQLVESGGGLVQPGGSLRLSCAASGFDLGFYFYACWVRQAPGKGLEWVSCIYTAGSGSTYYASWAKGRFTISRDNSKNTLYLQMNSLRAEDTAVYYCARSTANTRSTYYLNLWGQGTLVTVSS[left out - human IgG1 constant region]
[4]; 20 mg/kg i.v. day 1, 3, 5, 7, 9, 11, 13, 15, p≤0.011
  reduced tumor growth: 48%
[4]
  in vivo efficacy, cleavable versus non-enzymatic cleavable format: significantly more efficacious in vivo
[5]; 10 mg/kg i.v. day 8, 9, 10, P≤0.049
  reduced tumor growth vs. vehicle-treated group: 25%
[5]; 20 mg/kg i.v. day 8, 9, 10, P≤0.0003
  reduced tumor growth vs. vehicle-treated group: 53%
[6]
  cell killing of mesothelin-negative lines: unaffected
[7]
  target cell killing: most potent targeted killing effect; also recorded: most significant cell killing

B3: MES-BSP: bispecific antibody, SEQ ID NO: 3 (single chain anti-CD3 fused to MES-1 light chain) and SEQ ID NO: 2 (protein)
light: QVQLVESGGGVVQPGRSLRLSCAASGYTFTRYTMHWVRQAPGKCLEWIGYINPSRGYTNYNQKVKGRFTISRDNSKNTAYLQMNSLRAEDTAVYYCARYYDDHYCLDYWGQGTLVTVSSGGGGSGGGGSGGGGSGGGGSDIQMTQSPSSLSASVGDRVTITCSASSSVSYMNWYQQKPGKAPKLLIYDTSKLASGVPSRFSGSGSGTDYTFTISSLQPEDIATYYCQQWSSNPFTFGCGTKLEIKGGGGSDIQMTQSPSSLSASVGDRVTITCQASQRISSYLSWYQQKPGKVPKLLIYGASTLASGVPSRFSGSGSGTDFTLTISSLQPEDVATYYCQSYAYFDSNNWHAFGGGTKVEIKRTVAAPSVFIFPPSDEQLKSGTASVVCLLNNFYPREAKVQWKVDNALQSGNSQESVTEQDSKDSTYSLSSTLTLSKADYEKHKVYACEVTHQGLSSPVTKSFNRGEC
heavy: EVQLVESGGGLVQPGGSLRLSCAASGFDLGFYFYACWVRQAPGKGLEWVSCIYTAGSGSTYYASWAKGRFTISRDNSKNTLYLQMNSLRAEDTAVYYCARSTANTRSTYYLNLWGQGTLVTVSS[left out - human IgG1 constant region]
[1]
  PBMC immune-mediated target cell killing: significantly higher killing; also recorded: significantly the highest target cell killing
[8]
  ADCC activity (luciferase readout): equally effective
[9]; 3 mg/kg 3×QOD for 3 weeks, human PBMCs i.p., P=0.033
  reduction of tumors as compared to control treated mice: 70%
[9]; humanized PBMC mouse model
  tumor growth suppression: able to statistically suppress tumor growth
OVCAR3 cells
  ADCC activity (luciferase readout): equally effective

B4: PNU-MES-ADC (conjugate)
light: DIQMTQSPSSLSASVGDRVTITCQASQRISSYLSWYQQKPGKVPKLLIYGASTLASGVPSRFSGSGSGTDFTLTISSLQPEDVATYYCQSYAYFDSNNWHAFGGGTKVEIKRTVAAPSVFIFPPSDEQLKSGTASVVCLLNNFYPREAKVQWKVDNALQSGNSQESVTEQDSKDSTYSLSSTLTLSKADYEKHKVYACEVTHQGLSSPVTKSFNRGEC
heavy: EVQLVESGGGLVQPGGSLRLSCAASGFDLGFYFYACWVRQAPGKGLEWVSCIYTAGSGSTYYASWAKGRFTISRDNSKNTLYLQMNSLRAEDTAVYYCARSTANTRSTYYLNLWGQGTLVTVSS[left out - human IgG1 constant region]
NCI-N87 and SW1990 cells; MA-PEG4-VC-PAB-DMAE vs MC-EDA linker
  potency of cleavable format versus non-enzymatic cleavable format: ~100 fold
NCI-N87 and SW1990 cells; NCI-N87 and SW1990 cells
  potency, enzymatic cleavable versus non-enzymatic cleavable format: significantly more potent
[10]
  tumor response: equally effective in killing and causing regression of both tumors
[10]; [13]
  tumor response: induced significant tumor regression
[4]; 0.5 mg/kg i.v. day 1, 8, 15, 25, 32, 44, p≤0.050
  reduced tumor growth: 45%
[4]
  in vivo efficacy, cleavable versus non-enzymatic cleavable format: significantly more efficacious in vivo
[11]; 0.25 mg/kg on day 1, 8 and 15
  tumor response: durable response
[11]; single dose 0.75 mg/kg
  duration of durable response: more than 50 days
[11]; single dose 0.75 mg/kg on day 1, day 49, P≤0.0061, 0.75 mg/kg
  tumor response: equally effective in killing and causing regression of tumors
[11]; single dose 0.75 mg/kg on day 1, day 49, P≤0.0061, listed as MES-ADC, 0.75 mg/kg
  tumor response: significantly reduce established tumor growth
[6]
  cell killing of mesothelin-negative lines: unaffected
[7]
  target cell killing: most potent targeted killing effect; also recorded: most robust killing activity; also recorded: most significant cell killing
[12]
  tumor response: equally effective in killing and causing regression of both tumors
[12]; [13]
  tumor response: induced significant tumor regression
